Test results: PubChem BioAssay AID1030 (National Center for Advancing Translational Sciences (NCATS), 2008)
Out of some 220,000 compounds screened, about 16,000 (7.3%) were called active. Inconclusive results, whose numbers are uncertain, are shown with a selection of clear calls. The call rests on the fitted dose curve; in most records, active means well fitted inhibition curve with a large enough effect (not every such curve was filed as active); inconclusive means small, poorly fitted or top-dose-only effect, or another doubt; inactive means no such curve, though single readings can be large or run the other way. Potencies of inconclusive entries are left out as doubtful fits.

biological target: Aldehyde dehydrogenase 1A1 (Homo sapiens) (UniProt P00352); experiment: qHTS Assay for Inhibitors of Aldehyde Dehydrogenase 1 (ALDH1A1); details: Purified ALDH1A1, NADH fluorescence, propionaldehyde substrate; series mostly up to 75.3 µM; activity, negative = inhibition: at the top concentration;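 on activity, negative = inhibition: plate controls were no enzyme wells and a reference inhibitor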
Potency means the concentration at half of the fitted maximal effect; tags describe the fitted curve by direction and shape.

Chain of UniProt P00352 (P00352 whole entry, looked up): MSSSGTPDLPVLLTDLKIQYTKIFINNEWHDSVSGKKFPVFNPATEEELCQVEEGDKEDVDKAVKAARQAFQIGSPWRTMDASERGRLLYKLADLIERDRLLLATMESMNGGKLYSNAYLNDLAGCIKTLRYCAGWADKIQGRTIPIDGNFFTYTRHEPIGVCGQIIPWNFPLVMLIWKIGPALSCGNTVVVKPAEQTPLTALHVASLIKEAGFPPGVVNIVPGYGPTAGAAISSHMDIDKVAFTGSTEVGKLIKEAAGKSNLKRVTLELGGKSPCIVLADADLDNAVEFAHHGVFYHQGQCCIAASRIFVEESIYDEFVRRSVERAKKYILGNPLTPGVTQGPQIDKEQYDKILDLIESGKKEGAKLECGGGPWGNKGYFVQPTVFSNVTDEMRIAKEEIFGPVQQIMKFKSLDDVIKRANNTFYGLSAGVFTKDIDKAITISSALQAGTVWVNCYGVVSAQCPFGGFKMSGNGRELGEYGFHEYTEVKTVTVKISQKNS

Compound | Potency | activity, negative = inhibition
COc1ccc(-c2nnc(SC(C)C(=O)NCc3ccc4c(c3)OCO4)n2Cc2ccco2)cc1 (stereo not drawn) | inconclusive [inhibitor, single point] | –
CCn1cc(C(=O)O)c(=O)c2cnc(N3CCN(C(=S)NC(=O)c4ccccc4Cl)CC3)nc21 | – | inactive: -9.84%
COCCCNC(=O)/C=C/c1cccc(Cl)c1 | – | inactive: 0.909%
CCN1C(=O)/C(=C2/SC(C)=C(C)N2CC)SC1=S | inconclusive [inhibitor, full curve, poor fit] | –
Cc1cccn2c(=O)c3cc(C#N)c(=NC(=O)c4ccccc4)n(Cc4ccco4)c3nc12 | inconclusive [inhibitor, full curve] | –
CCOc1ccc(Br)cc1S(=O)(=O)Nc1ccc(Cl)c(S(=O)(=O)N(C)C)c1 | active: 0.355 µM | –
COC(=O)CC1=NN(c2nc3ccccc3s2)C(=O)/C1=C/N(C)C | – | inactive: 3.91%
O=c1cc(CO)oc(C(Nc2ccccn2)c2ccsc2)c1O (stereo not drawn) | inconclusive [inhibitor, single point] | –
C=CCNC(=S)N/N=C/c1ccc(C(C)(C)C)cc1 | – | inactive: -6.7%
N#C/C(=C\c1ccc(N2CCOCC2)o1)C(=O)Nc1ccc(O)cc1 | active: 20 µM | –
COC(=O)c1ccc2c(=O)[nH]c(CSc3nc(C)cs3)nc2c1 | active: 23.8 µM | –
Oc1c(N=NC(=S)Nc2ccccc2F)c2ccccc2n1Cc1ccccc1F | active: 20 µM | –
COc1cccc(C2CC(c3ccccc3)=NN2S(=O)(=O)c2ccccc2)c1OC (stereo not drawn) | inconclusive [inhibitor, full curve, poor fit] | –
CCOc1ccc(/C(O)=C2/C(=O)C(=O)N(CC3CCCO3)C2c2ccc(C)o2)cc1 (stereo not drawn) | inconclusive [inhibitor, single point] | –
CCOC(=O)c1cc(C#N)c(N2CCN(C(=O)c3ccccc3)CC2)nc1C(F)(F)F | active: 12.6 µM | –
COC(=O)c1ccc(N2CCN(C(C)=O)CC2)c(NC(=O)c2cccnc2)c1 | inconclusive [inhibitor, single point] | –
CCN1CCCC1CN(Cc1cc2cc(C)ccc2[nH]c1=O)C(=O)Nc1ccccc1OC (stereo not drawn) | inconclusive [inhibitor, single point] | –
COC1(NC(=O)c2ccccc2)C(C)=CC(=O)C=C1C | inconclusive [inhibitor, single point] | –
CC(OC(=O)c1nn(C)c(=O)c2ccccc12)C(=O)NCc1ccc2c(c1)OCO2 (stereo not drawn) | inconclusive [inhibitor, single point] | –
C=CCn1c(O)c(N=NC(=S)Nc2ccccc2F)c2ccccc21 | active: 28.2 µM | –
O=C(Nc1cccc(NC(=O)c2cccnc2Cl)c1)c1ccco1 | inconclusive [inhibitor, single point] | –
CCOC(=O)C1=C(c2ccccc2)NC(=S)NC1C (stereo not drawn) | active: 2 µM | –
OCCNCCOCCOc1ccccc1-c1ccccc1 | inconclusive [inhibitor, single point] | –
CCOC(=O)c1cnc2ccccc2c1Nc1ccc2c(c1)OCCO2 | inconclusive [inhibitor, single point] | –
Cc1nn(-c2ccccc2)c(Cl)c1/C=N/Nc1nnc(C)c(=O)[nH]1 | inconclusive [inhibitor, partial curve] | –

Compound | Potency | activity, negative = inhibition
CCCCn1nnnc1SCC(=O)Nc1ccc(C)cc1 | inconclusive [inhibitor, partial curve] | –
COc1ccc2c(C)cc(SCC(=O)NCCN3C(=O)CSC3=O)nc2c1 | inconclusive [inhibitor, partial curve] | –
COc1cc(S(=O)(=O)NCc2cccnc2)ccc1F | – | inactive: 1.82%
CC1(C)CC(=O)c2sc(NC(=O)c3ccc4ncsc4c3)nc2C1 | active: 3.55 µM | –
CCC1=C2CC[C@H]3C(=O)N(CC)C(=O)[C@H]3[C@H]2[C@@]2(Cc3ccccc3)C(=O)N(CCOC)C(=O)N2C1=O | – | inactive: -2.2%
COc1ccccc1Nc1nnc(SCC(=O)N2CC(=O)Nc3ccccc32)s1 | – | inactive: -2.81%
CN(Cc1cccnc1)Cc1cn(C)nc1-c1ccc(Oc2ccccc2)cc1 | inconclusive [inhibitor, single point] | –
COc1ccc2cc3cc(C(=O)NCc4ccccn4)oc3nc2c1 | inconclusive [inhibitor, partial curve] | –
CCOC(=O)c1[nH]cnc1C(=O)Nc1ccccc1C | inconclusive [inhibitor, single point] | –
O=C(CC(SCCO)c1ccc2c(c1)OCO2)c1cccs1 (stereo not drawn) | – | inactive: 10.1%
CCc1ccc(NC(=S)Nc2cc(OC)c(NC(=O)C(C)C)cc2OC)cc1 | inconclusive [inhibitor, single point] | –
O=C(CSc1nnc(CNC(=O)c2ccccc2F)o1)Nc1ccc2c(c1)OCO2 | inconclusive [inhibitor, single point] | –
Cc1oc(-c2cccc(Cl)c2)[n+]([O-])c1C | inconclusive [inhibitor, single point] | –
Cc1ccccc1NC(=O)c1ccc(C)c(S(=O)(=O)Nc2ccccn2)c1 | inconclusive [inhibitor, partial curve] | –
O=C(NC1CCCCC1)N(Cc1nc2ccccc2c(=O)[nH]1)C1CCCCC1 | inconclusive [inhibitor, single point] | –
O=c1c(O)c(-c2ccccc2)oc2ccc3occc3c12 | inconclusive [inhibitor, single point] | –
O=C(Nc1cccc(F)c1)C1CCN(C(=O)c2ccccc2Cl)CC1 | – | inactive: -8.6%
CC(=O)Nc1ccc(NC(=O)COC(=O)c2cnccn2)cc1 | inconclusive [inhibitor, single point] | –
COc1cc(C)nc(Oc2ccc(OCCOc3ccc(C)cc3)nn2)n1 | inconclusive [inhibitor, full curve] | –
N#Cc1c(-c2ccccc2)cc(-c2ccccc2)nc1SCC(=O)NCC(=O)O | inconclusive [inhibitor, single point] | –
COc1ccc(/C=N/N2C(=O)CSC2=S)cc1 | inconclusive [inhibitor, single point] | –
CN(Cc1cnn(C)c1)Cc1nc(COc2ccccc2)no1 | – | inactive: -4.3%
CN(C)S(=O)(=O)c1ccc(N2CCCC2)c(C(=O)N2CCN(c3ccc([N+](=O)[O-])cc3)CC2)c1 | active: 14.1 µM | –
CC(C)c1nnc(NC(=O)CCC(=O)NC2CCCc3ccccc32)s1 (stereo not drawn) | – | inactive: 0.733%
Cc1cccc(/C(N)=N/OC(=O)c2cccnc2)c1 | – | inactive: 12.3%

Compound | Potency | activity, negative = inhibition
CN1CCN(Cc2c(O)ccc3c(=O)c(Oc4ccccc4Cl)c(C(F)(F)F)oc23)CC1 | inconclusive [inhibitor, single point] | –
CCOc1ccc(NC(=O)c2ccccc2OC)cc1 | – | inactive: 4.93%
COc1ccc(NC(=O)COc2ccc(/C=N/n3c(C)nnc3C)cc2OC)cc1 | inconclusive [inhibitor, single point] | –
Cc1ccc(C)c(-c2cc(C(=O)Nc3sc(C)c(C)c3C(N)=O)c3ccccc3n2)c1 | – | inactive: -6.87%
O=C(COc1ccc(Cl)cc1[N+](=O)[O-])N1CCCCCC1 | – | inactive: 3.6%
CCN(CC)CCCNC(=O)CCC(=O)Nc1ccc2nc(N3CCC(C)CC3)cc(C)c2c1 | inconclusive [inhibitor, partial curve] | –
Cc1noc(C)c1/C=N/Nc1ccc2ccccc2n1 | – | inactive: -3.62%
COC(=O)/C=C1\SC(=NC(=O)c2ccc(C)cc2)NC1=O | inconclusive [inhibitor, single point] | –
CSCCC(NC(=O)c1cccc([N+](=O)[O-])c1)C(=O)O (stereo not drawn) | – | inactive: 2.86%
COc1ccccc1-c1cc(C(=O)N2CCCCC2)no1 | inconclusive [inhibitor, partial curve] | –
CCCc1cc(=O)[nH]c(SCC(=O)Nc2ccc([N+](=O)[O-])cc2C#N)n1 | inconclusive [inhibitor, single point] | –
COc1ccc(/C(CC2OC(=O)c3ccccc32)=N\NC(N)=O)cc1 (stereo not drawn) | – | inactive: -9.81%
CCCOc1ccc(NC(=O)CC2C(=O)N(C)C(=S)N2Cc2cccs2)cc1 (stereo not drawn) | inconclusive [inhibitor, single point] | –
O=C1CC(N2CCOCC2)C(=O)N1c1ccc2c(c1)OCO2 (stereo not drawn) | inconclusive [inhibitor, single point] | –
Nc1cc([N+](=O)[O-])ccc1O | inactive | –
CC(C)OC(=O)c1sc2nc(-c3ccccc3)ccc2c1N | inconclusive [inhibitor, partial curve] | –
CN1CC(=O)N(CC(=O)N2N=C(c3ccc(Cl)cc3)CC2c2ccco2)C1=O (stereo not drawn) | inconclusive [inhibitor, single point] | –
O=C(N[C@@H](c1ccccc1)[C@@H]1C[C@H]1C(=O)NCc1ccccc1)OCc1ccccc1 | inconclusive [inhibitor, single point] | –
COC(=O)C(CC(C)C)NC(=O)c1cccs1 (stereo not drawn) | – | inactive: 12.7%
CC(C)(C)n1nnnc1C(c1ccccc1)N1CCc2ccccc2C1 (stereo not drawn) | – | inactive: -16%
O=C(O)c1ccccc1/C=N/NC(=O)c1cc(-c2ccco2)nc2ccccc12 | inconclusive [inhibitor, partial curve] | –
Cc1sc(NC(=O)c2ccco2)c(CN2CCN(c3ccc(F)cc3)CC2)c1C | inconclusive [inhibitor, partial curve] | –
COC(=O)c1cccnc1NC(=S)NNC(=O)c1ccccc1 | inconclusive [inhibitor, single point] | –
